# According to PubChem BioAssay AID1768 (National Center for Advancing Translational Sciences (NCATS), 2009):
# The whole screen tested about 270,000 compounds, of which about 620 (0.23%) were called active. Inconclusive means that the source gave no clear call. Such entries were picked first, then a sample of the others. Calls follow the shape of the dose curve; as a rule, active = well fitted inhibition curve with a large enough effect in the polarisation, with a control signal flat (not every such curve was filed as active); inconclusive = small, poorly fitted or top-dose-only effect, or effect the other way, or a change in a side signal; inactive = no such curve, though single readings can be large or run the other way; the % refers to the polarisation. Potencies beside an inconclusive call are fits to weak or partial responses and may not hold up. A note “side channel” means that the fit belongs to a control or component signal, not to the main read-out.
# Molecular target: Menin (Homo sapiens) (UniProt O00255)
# UniProt O00255, sequence (O00255 whole entry, looked up): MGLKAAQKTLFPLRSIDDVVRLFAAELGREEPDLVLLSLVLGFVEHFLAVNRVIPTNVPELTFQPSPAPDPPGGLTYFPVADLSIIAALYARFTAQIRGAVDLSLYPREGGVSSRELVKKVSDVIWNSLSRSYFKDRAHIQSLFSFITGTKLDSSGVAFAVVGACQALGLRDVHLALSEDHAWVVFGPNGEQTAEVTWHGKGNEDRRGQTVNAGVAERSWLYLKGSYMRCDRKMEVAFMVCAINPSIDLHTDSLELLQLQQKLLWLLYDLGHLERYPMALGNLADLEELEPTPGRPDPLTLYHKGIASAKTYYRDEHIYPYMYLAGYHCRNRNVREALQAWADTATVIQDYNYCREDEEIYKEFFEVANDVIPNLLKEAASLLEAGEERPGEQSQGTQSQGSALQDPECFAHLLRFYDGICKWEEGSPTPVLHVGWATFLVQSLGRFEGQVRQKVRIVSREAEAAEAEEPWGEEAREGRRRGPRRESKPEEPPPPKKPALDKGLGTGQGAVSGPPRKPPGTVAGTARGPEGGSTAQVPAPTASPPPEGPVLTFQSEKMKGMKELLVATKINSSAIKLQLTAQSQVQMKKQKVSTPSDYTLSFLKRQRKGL
# Experiment: qHTS Assay for Inhibitors Targeting the Menin-MLL Interaction in MLL Related Leukemias: Competition With Texas Red Labeled MLL-derived Mutant Peptide; as to FP activity change, negative = inhibition: % of control where 0% means no effect
# Conditions: fluorescence polarization; FP activity change, negative = inhibition: at 61.6 µM (top of the series)
# Potency is read from the fitted curve at half-maximal effect; tags tell the direction and shape of the fitted curve or compound fluorescence and quenching.
SMILES,Potency,"FP activity change, negative = inhibition"
Cc1cccc(OCC(=O)Nc2cccc(C(=O)Nc3ccccc3C(=O)O)c2)c1,"inconclusive: 14.1 µM [quencher, partial curve]",
CCn1c(COc2cccc3cccnc23)nnc1SCC(=O)OC,"inconclusive: 10 µM [inhibitor, full curve]",
CCOC(=O)Cc1c(C)nc2c(-c3cccc(Br)c3)c[nH]n2c1=O,"inconclusive: 31.6 µM [quencher, single point]",
Cc1[nH]n(-c2ccccc2)c(=O)c1/C=N/Nc1nncc(-c2ccccc2)n1,"inconclusive: 12.6 µM [quencher, side channel, partial curve]",
CCC(C)(C)NC(=O)C(c1ccccn1)N(C(=O)c1csnn1)C1CCCCC1 (stereo unspecified),"inconclusive: 3.55 µM [fluorescent, side channel, single point]",
CCCN1C(=O)C2C(C(=O)Nc3cccc(OC)c3)C3C=CC2(O3)C1C(=O)NC1CCCCC1 (stereo unspecified),"inconclusive: 35.5 µM [fluorescent, side channel, single point]",
CCOC(=O)c1sc(NC(=O)C2CC(=O)N(c3ccc(C)cc3)C2)nc1C (stereo unspecified),"inconclusive: 39.8 µM [quencher, side channel, single point]",
CCCN(CC1CC1)C(=O)COC(=O)c1ccc2c(c1)C(=O)N(c1ccc(OCC)cc1)C2=O,"inconclusive: 11.2 µM [fluorescent, side channel, partial curve]",
CCOC(=O)C1CCCN(CC(O)COC(c2ccccc2)c2ccccc2)C1 (stereo unspecified),,inactive: -20.9%
CCC(C)NC(=O)Cn1c(=O)n(-c2ccccc2)c(=O)c2ccc(C(=O)NCc3ccco3)cc21 (stereo unspecified),"inconclusive: 39.8 µM [inhibitor, single point]",
O=[N+]([O-])c1ccc(COc2cccc(CNc3ccc(Br)cc3)c2)cc1,"inconclusive: 7.08 µM [quencher, side channel, partial curve]",
COc1ccc(NC(=O)C2CCCN(c3nccc(C)n3)C2)cc1 (stereo unspecified),,inactive: 13.2%
CCOc1ccc(-c2nc(CSCC(=O)NCCN3CCOCC3)c(C)o2)cc1,"inconclusive: 1 µM [inhibitor, full curve, poor fit]",
O=C(Nc1cccc2ncccc12)c1ccc(Cl)cc1,"inconclusive: 39.8 µM [fluorescent, single point]",
CC(=O)Nc1ccc(S(=O)(=O)N(C)S(=O)(=O)c2ccc(F)cc2)cc1,"inconclusive: 25.1 µM [quencher, side channel, partial curve]",
N=c1ccn(Cc2ccc(Cl)cc2)cc1,,inactive: 9.37%
COC(=O)Cc1c(C)nc2nc(-c3ccc(C)cc3)[nH]n2c1=O,,inactive: -9.45%
O=C(Nc1nc(-c2ccco2)c(-c2ccco2)s1)C1CCC1,"inconclusive: 25.1 µM [quencher, side channel, partial curve]",

SMILES,Potency,"FP activity change, negative = inhibition"
C=CCNc1nc(Nc2ccc([N+](=O)[O-])cc2)nc(OC)n1,"inconclusive: 12.6 µM [quencher, side channel, partial curve]",
COc1ccc(C=O)cc1Cn1c(=O)n(CCC(=O)NCc2ccco2)c(=O)c2sccc21,"inconclusive: 28.2 µM [fluorescent, side channel, single point]",
CCOc1ccc(S(=O)(=O)Nc2cc(Cl)ccc2O)cc1,"inconclusive: 15.8 µM [quencher, side channel, partial curve]",
O=C(CCN1C(=O)/C(=C/c2ccccc2Cl)SC1=S)NNC(=O)c1ccccc1O,"inconclusive: 14.1 µM [quencher, side channel, partial curve]",
COc1ccc(C(=O)/C=C/c2ccccc2)c(OC)c1,"inconclusive: 10 µM [fluorescent, side channel, partial curve]",
O=C(CNc1ccc2ccccc2c1)N/N=C/c1ccc([N+](=O)[O-])o1,"inconclusive: 14.1 µM [quencher, side channel, single point]",
CCOC(=O)C1CCN(C(=O)c2cc3cc(Cl)ccc3[nH]2)CC1,"inconclusive: 0.631 µM [inhibitor, full curve, poor fit]",
CN1CCN(C(c2ccc(C(F)(F)F)cc2)c2ccc3cccnc3c2O)CC1 (stereo unspecified),,inactive: 5.61%
O=C(CCn1nc(-c2ccccc2)ccc1=O)NCCCN1CCCCCC1,"inconclusive: 39.8 µM [inhibitor, single point]",
CS(=O)(=O)N(CC(=O)Nc1cc(Cl)ccc1Cl)c1ccccc1Cl,"inconclusive: 25.1 µM [quencher, side channel, single point]",
O=[N+]([O-])c1ccc(NC(=S)N2CCN(c3ccccc3)CC2)cc1,"inconclusive: 14.1 µM [quencher, side channel, partial curve]",
O=C(O)c1ccc(Nc2nc(-c3ccc([N+](=O)[O-])cc3)nc3ccccc23)cc1,"inconclusive: 3.98 µM [quencher, side channel, full curve]",
Cc1ccc(S(=O)(=O)Nc2ccccc2CNc2ncc(Br)cc2Br)cc1,"inconclusive: 39.8 µM [inhibitor, single point]",
COc1ccc(-n2cc(-c3ccccc3)c3c(=S)nc[nH]c32)cc1,"inconclusive: 31.6 µM [quencher, side channel, single point]",
CCOc1cc(/C=N/N=C2/NC(=O)C(CC(=O)O)S2)ccc1OCc1ccc(Cl)cc1 (stereo unspecified),"inconclusive: 12.6 µM [quencher, side channel, partial curve]",
CC(C)=CCC/C(C)=C/CO/N=C1/C[C@@H](O)[C@@H](O)[C@@H]2[C@@H]3C(=O)N(Cc4ccc5c(c4)OCO5)C(=O)[C@H]3CC[C@@H]12,,inactive: -15.2% [at 11.7 µM]
CCc1ccc(NCc2ccc(OC)c(Cn3ccnc3)c2)cc1,"inconclusive: 14.1 µM [fluorescent, side channel, partial curve]",
C/C(=N/NC(=O)c1cccs1)c1ccc(NC(=O)COc2ccc(Cl)cc2Cl)cc1,"inconclusive: 22.4 µM [inhibitor, single point]",
